# In PubChem BioAssay (Tox21):
# Several values for one entry are separate records, joined by “and”; a condition that tells them apart may be missing. Equal entries are not always repeated. The shares of active, inactive and inconclusive entries below differ from those in the screen. For some of these results: Where the call is inconclusive, the potency comes from a doubtful curve fit. Activity calls are given as the source filed them. Unless noted, the call rests on the fitted dose curve; in most records, active means well fitted curve in the direction sought with a large enough effect in the repeat runs; inconclusive means weak or mixed curves; inactive means no such curve, though single readings can be large; an effect the other way counts as inactive or inconclusive.
# Columns and labels:
# [1] = target: Progesterone receptor (Homo sapiens) (UniProt P06401); assay: qHTS assay to identify small molecule antagonists of the progesterone receptor (PR) signaling pathway (AID 1346795; active means well fitted inhibition curve with a large enough effect in the signal ratio in the repeat runs, not every such curve was filed as active; inconclusive means weak or mixed curves; the % refers to the signal ratio; on activity change, negative = inhibition: on the % scale 0 is the no-effect control and ±100 the full control effect); conditions: PR-UAS-bla HEK293T, beta-lactamase FRET ratio, 16 h
# Chain of UniProt P06401 (P06401 whole entry, looked up): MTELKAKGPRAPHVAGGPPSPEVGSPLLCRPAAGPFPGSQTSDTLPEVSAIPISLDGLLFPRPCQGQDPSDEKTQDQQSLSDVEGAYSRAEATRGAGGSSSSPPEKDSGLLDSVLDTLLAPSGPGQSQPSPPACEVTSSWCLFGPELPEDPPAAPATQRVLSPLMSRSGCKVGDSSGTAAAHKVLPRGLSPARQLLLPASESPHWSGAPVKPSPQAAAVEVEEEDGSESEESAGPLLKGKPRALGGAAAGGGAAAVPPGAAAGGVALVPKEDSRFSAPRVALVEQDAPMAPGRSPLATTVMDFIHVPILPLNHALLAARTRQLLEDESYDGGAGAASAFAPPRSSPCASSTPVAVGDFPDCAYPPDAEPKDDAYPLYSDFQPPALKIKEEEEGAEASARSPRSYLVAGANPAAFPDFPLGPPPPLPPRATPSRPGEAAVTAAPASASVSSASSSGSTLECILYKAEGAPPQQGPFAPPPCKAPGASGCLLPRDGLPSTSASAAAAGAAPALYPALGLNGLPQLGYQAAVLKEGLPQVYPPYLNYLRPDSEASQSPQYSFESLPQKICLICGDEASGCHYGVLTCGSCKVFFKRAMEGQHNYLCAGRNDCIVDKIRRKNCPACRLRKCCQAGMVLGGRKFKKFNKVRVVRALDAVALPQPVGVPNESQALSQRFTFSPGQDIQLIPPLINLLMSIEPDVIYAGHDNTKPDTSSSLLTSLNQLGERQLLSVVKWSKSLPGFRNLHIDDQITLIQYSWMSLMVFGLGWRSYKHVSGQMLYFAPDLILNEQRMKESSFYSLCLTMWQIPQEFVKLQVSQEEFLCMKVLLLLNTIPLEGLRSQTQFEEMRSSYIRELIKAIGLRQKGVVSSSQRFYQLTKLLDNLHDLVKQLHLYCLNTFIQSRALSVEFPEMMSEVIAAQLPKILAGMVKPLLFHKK
# How it was run: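 HEK293T PR-UAS-bla reporter cells in charcoal-stripped serum (2%) received compound after a 6 hr settling period, followed by R5020 agonist at 1 nM final; 16 hr incubation preceded the FRET substrate step and fluorescence measurement.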
# [2] = qHTS assay to identify small molecule agonists of the progesterone receptor (PR) signaling pathway - cell viability counter screen (AID 1346799; calls by dose curve; further: nearly all actives have a fitted effect of over 45% in size; on activity change, negative = cytotoxicity: on the % scale 0 is the no-effect control and ±100 the full control effect)
# How it was run: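 Counter screen for cytotoxicity: compound-treated PR-UAS-bla HEK293T cells (16 hr, 37C, 5% CO2) were assayed with CellTiter-Glo, luminescence measured after 30 min at room temperature.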
# [3] = qHTS assay to identify small molecule antagonists of the TGF-beta/Smad signaling pathway (AID 1346924; active means well fitted inhibition curve with a large enough effect in the signal ratio in the repeat runs, not every such curve was filed as active; inconclusive means weak or mixed curves; the % refers to the signal ratio); conditions: SBE-bla HEK293T, TGF-beta/Smad reporter, beta-lactamase ratio; activity, negative = inhibition: at 76.8 µM (top of the series) unless noted
# How it was run: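 SBE-bla HEK 293T cells were plated overnight, then received compound in DMSO plus TGF-beta1 (added as a 0.25 ng/mL solution) and were incubated 5 h at 37 C. Beta-lactamase reporter activity was read after 2 h at room temperature with LiveBLAzer B/G FRET substrate (ex 405, em 460/530 nm).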
# [4] = qHTS assay to identify small molecule antagonists of the progesterone receptor (PR) signaling pathway - cell viability counter screen (AID 1346798); further: nearly all actives have a fitted effect of over 50% in size; on activity change, negative = cytotoxicity: on the % scale 0 is the no-effect control and ±100 the full control effect
# How it was run: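 Same-well multiplex: after 16 hr at 37C with compound and R5020 stimulation, HEK293T cells carrying a UAS-bla reporter received LiveBLAzer substrate (2 hr RT), then CellTiter-Glo (30 min RT) for luminescent viability.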
# [5] = Human pregnane X receptor (PXR) small molecule agonists, qHTS cell viability counter screen (AID 1346977); further: nearly all actives have a fitted effect of over 50% in size
# How it was run: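 Measures live-cell protease fluorescence (CellTiter-Fluor) in PXR-Luc HepG2 cells treated 24hr with compounds at 37C. Cells had 5hr to attach before pin transfer of DMSO solutions.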
# [6] = Caspase-3/7 induction in CHO-K1 cells by small molecules, qHTS cell viability counter screen (AID 1346979); conditions: CellTiter-Fluor fluorescence, 17 h; activity change, negative = cytotoxicity: at 92.4 µM (top of the series); further: nearly all actives have a fitted effect of over 35% in size
# How it was run: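 In the same wells as the caspase read, viability of compound-treated wild-type CHO-K1 cells was assessed using CellTiter-Fluor, added after 16hr at 37C and measured by fluorescence following 1hr further incubation.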
# [7] = target: Nuclear receptor subfamily 1 group I member 2 (Homo sapiens) (UniProt O75469); assay: Human pregnane X receptor (PXR) small molecule agonists, qHTS assay (AID 1346982); further: nearly all actives have a fitted effect of over 35% in size
# How it was run: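 Luciferase signal from ONE-Glo (30 min, room temperature) measured activation of hPXR-driven CYP3A4 reporter expression in PXR-Luc HepG2 cells treated with compounds for 24 hr at 37 C.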
# [8] = target: Nuclear receptor subfamily 1 group I member 2 (Homo sapiens) (UniProt O75469); assay: Human pregnane X receptor (PXR) activation by small molecules, qHTS assay (AID 1346985); further: nearly all actives have a fitted effect of over 40% in size
# How it was run: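 DPX-2 cells (HepG2 co-transfected with a PXR response element and a CYP3A4-promoter luciferase construct) were seeded at 2,000 per well, rested 5 hr at 37C, then exposed to DMSO-dissolved compounds for 24 hr. Activation was read as luciferase luminescence.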
# [9] = target: Cytochrome P450 2D6 (Homo sapiens) (UniProt P10635); assay: Cytochrome P450 Family 2 Subfamily D Member 6 (CYP2D6) small molecule antagonists: luciferase reporter qHTS assay (AID 1671196); further: nearly all actives have a fitted effect of over 50% in size
# Chain of UniProt P10635 (P10635 whole entry, looked up): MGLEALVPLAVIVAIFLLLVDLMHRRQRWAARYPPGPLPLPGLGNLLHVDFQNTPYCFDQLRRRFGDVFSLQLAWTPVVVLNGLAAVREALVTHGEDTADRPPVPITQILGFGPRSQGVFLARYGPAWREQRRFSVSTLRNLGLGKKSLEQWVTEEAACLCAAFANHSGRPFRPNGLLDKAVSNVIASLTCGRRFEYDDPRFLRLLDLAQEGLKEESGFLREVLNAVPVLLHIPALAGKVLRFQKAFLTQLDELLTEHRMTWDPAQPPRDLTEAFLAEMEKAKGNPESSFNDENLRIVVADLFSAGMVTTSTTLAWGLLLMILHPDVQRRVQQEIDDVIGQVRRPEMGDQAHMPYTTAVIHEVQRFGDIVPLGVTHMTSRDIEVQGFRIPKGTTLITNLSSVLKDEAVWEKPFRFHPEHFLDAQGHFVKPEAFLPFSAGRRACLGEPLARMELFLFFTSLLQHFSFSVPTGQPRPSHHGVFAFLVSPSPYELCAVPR
# How it was run: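 Read-out is luminescence from luciferin formed by CYP2D6 turnover of a proluciferin substrate, recorded as relative luminescence units. Reactions ran 1 h at room temperature after NADPH regeneration solution was added.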
# [10] = Caspase-3/7 induction in HepG2 cells by small molecules, qHTS cell viability counter screen (AID 1346981); further: nearly all actives have a fitted effect of over 30% in size; on activity change, negative = cytotoxicity: on the % scale 0 is the no-effect control and ±100 the full control effect
# How it was run: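 HepG2, WT, 2,000 cells/well; 5 hr pre-incubation 37 C/5% CO2; compound pin-transferred from DMSO; 16 hr exposure; CellTiter-Fluor, 1 hr; fluorescence read.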
# [11] = target: Cytochrome P450 2C19 (Homo sapiens) (UniProt P33261); assay: Cytochrome P450 Family 2 Subfamily C Member 19 (CYP2C19) small molecule antagonists: luciferase reporter qHTS assay (AID 1671197); further: nearly all actives have a fitted effect of over 65% in size
# Chain of UniProt P33261 (P33261 whole entry, looked up): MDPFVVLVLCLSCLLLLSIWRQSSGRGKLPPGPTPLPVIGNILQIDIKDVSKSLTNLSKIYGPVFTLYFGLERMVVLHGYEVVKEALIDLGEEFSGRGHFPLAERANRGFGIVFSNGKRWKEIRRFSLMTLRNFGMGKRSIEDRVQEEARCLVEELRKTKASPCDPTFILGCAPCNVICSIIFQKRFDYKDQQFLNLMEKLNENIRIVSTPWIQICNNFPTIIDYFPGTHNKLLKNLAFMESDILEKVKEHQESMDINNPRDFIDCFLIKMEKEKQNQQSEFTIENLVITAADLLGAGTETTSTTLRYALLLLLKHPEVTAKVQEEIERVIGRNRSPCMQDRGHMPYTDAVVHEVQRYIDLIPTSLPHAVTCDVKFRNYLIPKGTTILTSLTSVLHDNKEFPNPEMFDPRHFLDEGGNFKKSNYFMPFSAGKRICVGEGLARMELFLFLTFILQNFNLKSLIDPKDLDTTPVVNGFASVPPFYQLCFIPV
# How it was run: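 First, compounds are pinned into enzyme-substrate mix and held 10 min at room temperature. Second, NADPH regeneration solution is added and plates incubate 1 h at 37C. Third, detection reagent is added and luminescence read after 20 min.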
# [12] = target: Cytochrome P450 2C9 (Homo sapiens) (UniProt P11712); assay: Cytochrome P450 Family 2 Subfamily C Member 9 (CYP2C9) small molecule antagonists: luciferase reporter qHTS assay (AID 1671198); further: nearly all actives have a fitted effect of over 50% in size
# Chain of UniProt P11712 (P11712 whole entry, looked up): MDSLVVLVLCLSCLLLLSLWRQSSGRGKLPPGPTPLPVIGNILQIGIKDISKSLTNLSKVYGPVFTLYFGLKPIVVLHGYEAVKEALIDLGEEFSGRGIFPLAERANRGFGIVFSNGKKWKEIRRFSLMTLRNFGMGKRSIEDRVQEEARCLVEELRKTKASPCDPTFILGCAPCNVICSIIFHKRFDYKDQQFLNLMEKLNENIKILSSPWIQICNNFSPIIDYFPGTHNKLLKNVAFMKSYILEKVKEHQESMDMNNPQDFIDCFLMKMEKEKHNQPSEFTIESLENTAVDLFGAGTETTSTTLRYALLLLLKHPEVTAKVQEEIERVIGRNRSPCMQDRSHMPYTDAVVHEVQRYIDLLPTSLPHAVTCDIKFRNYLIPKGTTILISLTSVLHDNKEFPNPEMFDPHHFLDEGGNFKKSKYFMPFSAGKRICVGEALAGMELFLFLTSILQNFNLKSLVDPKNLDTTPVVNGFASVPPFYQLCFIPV
# How it was run: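 Enzyme-substrate mix preincubated with compound 10 min at room temperature; reaction started with NADPH regeneration solution, 1 h 37C. Luminescent luciferin product read after 20 min detection reagent.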
# [13] = Caspase-3/7 induction in HepG2 cells by small molecules, qHTS assay (AID 1346978); further: nearly all actives have a fitted effect of over 15% in size
# How it was run: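 Caspase-3/7 induction was measured by Caspase-Glo 3/7 luminescence (30 min, room temperature) after a 17 hr compound exposure of wild-type HepG2 cells seeded at 2,000 per well and pre-incubated 5 hr.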
# [14] = target: Nuclear receptor subfamily 1 group I member 2 (Rattus norvegicus) (UniProt Q9R1A7); assay: Rat pregnane X receptor (rPXR) activation by small molecules, qHTS assay (AID 1346983); conditions: rPXR luciferase reporter cells, One-Glo luminescence, 24 h; max activation: stronger effect = higher value; further: nearly all actives have a fitted effect of over 20% in size
# Chain of UniProt Q9R1A7 (Q9R1A7 whole entry, looked up): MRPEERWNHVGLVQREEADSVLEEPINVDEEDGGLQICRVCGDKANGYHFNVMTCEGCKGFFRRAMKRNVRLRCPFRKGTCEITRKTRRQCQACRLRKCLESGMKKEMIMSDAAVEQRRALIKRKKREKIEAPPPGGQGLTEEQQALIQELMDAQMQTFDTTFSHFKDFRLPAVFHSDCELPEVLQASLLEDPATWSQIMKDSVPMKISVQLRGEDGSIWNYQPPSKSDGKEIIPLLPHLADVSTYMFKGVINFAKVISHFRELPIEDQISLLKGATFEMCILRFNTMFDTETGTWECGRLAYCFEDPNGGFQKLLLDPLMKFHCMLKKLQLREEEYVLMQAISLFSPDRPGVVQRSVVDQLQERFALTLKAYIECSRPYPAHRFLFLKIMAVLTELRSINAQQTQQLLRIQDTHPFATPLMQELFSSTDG
# How it was run: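 Luminescent readout (One-Glo luciferase, 30 min room temperature) followed 24 hr compound treatment at 37 C of rPXR cells plated 2,000 per well and preincubated 5hr; qHTS format with compounds delivered in DMSO.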
# [15] = qHTS assay to identify small molecule agonists of the TGF-beta/Smad signaling pathway (AID 1346859; active means well fitted activation curve with a large enough effect in the signal ratio in the repeat runs, not every such curve was filed as active; inconclusive means weak or mixed curves; the % refers to the signal ratio); conditions: SBE-bla HEK293T, TGF-beta/Smad beta-lactamase reporter, 5 h; activation: at 76.8 µM (top of the series)
# How it was run: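 Smad-responsive beta-lactamase reporter cells (HEK 293T) received compounds from DMSO stocks after overnight attachment, were incubated 5 hr, then treated 2 hr with FRET substrate before dual-emission fluorescence measurement (405 nm excitation).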
# [16] = activity change, negative = inhibition: at 92.4 µM (top of the series) unless noted
# Potency means the concentration at half of the fitted maximal effect; tags describe the fitted curve by direction and shape or compound fluorescence and quenching.
structure (smiles),measurement,setting,value
COCCOCCOCCO,Potency,[1]; [16],"inconclusive: 3.44 µM [rising, full curve, poor fit]"
same,"activity change, negative = inhibition",[1]; [16],inconclusive: 15.6%
same,Potency,[2],inactive
same,"activity, negative = inhibition",[3],inconclusive: 31.7%
O=C(NCCN1CCOCC1)c1ccc(Cl)cc1,Potency,[1]; [16],inactive
O=C1NCCN1CCO,Potency,[1]; [16],inactive
OCC1CC=CCC1 (centres undefined),Potency,[1]; [16],inactive
same,Potency,[4],inactive
Oc1ccc(OCc2ccccc2)cc1,Potency,[1]; [16],active: 18.9 µM
same,"activity change, negative = inhibition",[1]; [16],inconclusive: -35.6% [at 42.5 µM]
same,Potency,[5],"inconclusive: 33.5 µM [rising, partial curve, poor fit]"
same,Potency,[6],"inconclusive: 75.3 µM [cytotoxic, partial curve]"
same,Potency,[7],"active: 30 µM and inconclusive: 26.6 µM [activator, single point]"
same,Potency,[8],"inconclusive: 11.2 µM [activator, single point]"
same,Potency,[9],"inconclusive: 39.1 µM [inhibitor] and inconclusive: 17.4 µM [inhibitor, partial curve]"
CN1[C@@H]2CC(OC(=O)[C@H](CO)c3ccccc3)C[C@H]1[C@@H]1O[C@@H]12 (some centres undefined),Potency,[1]; [16],"inconclusive: 61.2 µM [rising, single point]"
same,"activity change, negative = inhibition",[1]; [16],inconclusive: 13.8%
same,Potency,[4],"inconclusive: 68.7 µM [cytotoxic, partial curve, poor fit] and inconclusive: 2.98 µM [cytotoxic, single point]"
C=CCOC(=O)c1ccccc1C(=O)OCC=C,"activity change, negative = inhibition",[1]; [16],inconclusive: -29.1%
same,"activity change, negative = inhibition",[1]; at 92.4 µM (top of the series),inactive: -21.1%
same,Potency,[10],inactive
same,Potency,[9],"inconclusive: 62.3 µM [inhibitor, partial curve]"
same,Potency,[11],active: 1.56 µM and active: 1.26 µM
CCCC(=O)OC(=O)CCC,Potency,[1]; [16],inactive
COCC(=O)O,"activity change, negative = inhibition",[1]; [16],inconclusive: 6.9%
same,"activity change, negative = inhibition",[1]; at 92.4 µM (top of the series),inactive: 1.82%
same,Potency,[4],"inconclusive: 70.5 µM [rising, single point]"
same,Potency,[12],"inconclusive: 65 µM [inhibitor, partial curve, poor fit]"
O=NN(CCCl)C(=O)NC1CCCCC1,Potency,[1]; [16],inactive
CC[C@@H](CO)NCCN[C@@H](CC)CO,Potency,[1]; [16],inactive
CC(C)n1c(/C=C/[C@@H](O)C[C@@H](O)CC(=O)O)c(-c2ccc(F)cc2)c2ccccc21,"activity change, negative = inhibition",[1]; at 42.5 µM (top of the series),inconclusive: 0.587%
same,"activity change, negative = inhibition",[1]; at 92.4 µM (top of the series),inconclusive: -43.3%
same,Potency,[4],"inconclusive: 2.43 µM [cytotoxic, partial curve] and inconclusive: 1.06 µM [cytotoxic, full curve]"
same,Potency,[2],"active: 770 nM and inconclusive: 750 nM [cytotoxic, full curve]"
same,Potency,[13],active: 12.2 µM
same,Potency,[6],"inconclusive: 5.31 µM [cytotoxic, full curve]"
same,Potency,[10],"inconclusive: 27.3 µM [cytotoxic, partial curve]"
same,Potency,[14],active: 12.6 µM
same,Potency,[9],"inconclusive: 63.3 µM [inhibitor, partial curve]"
NC(CSCC(=O)O)C(=O)O (centres undefined),Potency,[1]; [16],inactive
Cc1cc(CC(=O)O)n(C)c1C(=O)c1ccc(Cl)cc1,Potency,[1]; [16],"inconclusive: 30.6 µM [rising, partial curve, poor fit]"
same,"activity change, negative = inhibition",[1]; [16],inconclusive: 4.34% [at 42.5 µM]
same,Potency,[3],"inconclusive: 21.9 µM [fluorescent, partial curve] and inconclusive: 26.8 µM [fluorescent, partial curve, poor fit]"
same,Potency,[12],"inconclusive: 35.5 µM [inhibitor, partial curve]"
NCCC(O)(P(=O)(O)O)P(=O)(O)O,Potency,[1]; [16],inactive
CN(C)Cc1ccccc1O,Potency,[1]; [16],inactive
Cc1c(C(=O)NN2CCCCC2)nn(-c2ccc(Cl)cc2Cl)c1-c1ccc(Cl)cc1,Potency,[1]; [16],active: 11.9 µM
same,Potency,[4],"inconclusive: 21.1 µM [rising, partial curve, poor fit]"
same,Potency,[2],"inconclusive: 13.3 µM [rising, partial curve, poor fit]"
same,"activity, negative = inhibition",[3],inconclusive: -10.4% [at 35.3 µM]
same,Potency,[5],"inconclusive: 33.5 µM [cytotoxic, single point]"
same,Potency,[6],active: 26.6 µM
same,Potency,[10],"inconclusive: 33.5 µM [cytotoxic, single point]"
same,Potency,[7],"inconclusive: 33.5 µM [activator, single point]"
CC(=O)Oc1cccc2c1C(=O)c1c(OC(C)=O)cc(C(=O)O)cc1C2=O,"activity change, negative = inhibition",[1]; [16],inconclusive: 11% [at 42.5 µM]
same,Potency,[4],"inconclusive: 26.6 µM [rising, single point]"
same,Potency,[2],"inconclusive: 7.5 µM [rising, single point]"
same,Potency,[15],"inconclusive: 19 µM [rising, partial curve]"
same,Potency,[3],"inconclusive: 19 µM [fluorescent, partial curve]"
same,Potency,[6],active: 29.8 µM
same,Potency,[12],"inconclusive: 24.5 µM [inhibitor, partial curve, poor fit]"
CC(C)OC(=O)c1ccccc1C(=O)OC(C)C,Potency,[1]; [16],"inconclusive: 68.6 µM [rising, single point]"
same,Potency,[4],active: 61.1 µM
same,Potency,[2],active: 43.3 µM
